# Reference: PubChem BioAssay (NCATS)
# This list was built around the results that the source calls inconclusive (neither active nor inactive); the mix of calls is not that of the screen. Calls of active or inactive are those of the source. Calls come from the whole dose curve; as a rule, active = well fitted curve in either direction with a large enough effect (not every such curve was filed as active); inconclusive = small, poorly fitted or top-dose-only effect, or another doubt; inactive = flat fitted curve, though single readings scatter.
# Experiment: AP1 Signaling Pathway (AID 357);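 note: ME-180 reporter cells stimulated with EGF at its EC50 level; top concentration of the series differs between compounds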
# Settings: ME-180 (cervical carcinoma) AP-1-bla reporter, EGF-induced, beta-lactamase ratio, 5 h; at 17.2 µM (top of the series) unless noted
# Outline: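 Modulation of EGF-driven AP-1 transcription was assessed with a beta-lactamase reporter in ME-180 cells. Compound and EC50 EGF were co-incubated 5 hours at 37 °C before 2.5-hour CCF4 loading at room temperature and dual-emission reading.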
# % is set by controls: 0 for no effect and ±100 for the full control effect.
row,SMILES,"activity change, negative = inhibition"
1,Cc1ccc(-c2nc(-c3nccc4ccccc34)oc2-c2ccccc2)cc1,inconclusive: 37.9% [activator] [at 7.69 µM]
2,COc1ccc(-c2csc3c2[N+]2=CCC=C2C3=O)cc1,inconclusive: 57.4% [activator] [at 7.69 µM]
3,N#CCSc1nc2c(c(=O)n1Cc1ccco1)C1(CCCC1)Cc1ccccc1-2,inconclusive: 39.7% [activator]
4,CCCCCCC(=O)N1CCN(c2cc3c(cc2F)c(=O)c(C(=O)O)cn3CC)CC1,inactive: -1.28%
5,CNCC[C@H](Oc1ccccc1C)c1ccccc1,inconclusive: 39.8% [activator] [at 38 µM]
6,O=C1C(Cl)=C(Sc2nnc3c4ccccc4c4ccccc4c3n2)C(=O)c2ccccc21,inconclusive: 38.1% [activator] [at 7.69 µM]
7,COCCNc1ncnc2ccc(-c3cccc(OC)c3)cc12,inconclusive: -37.3% [inhibitor] [at 7.69 µM]
8,O[Si@](CCCN1CCCCC1)(c1ccc(F)cc1)C1CCCCC1,inactive: 11.3% [at 38 µM]
9,O=C(c1csnn1)N1CCC2(CCCN(c3ccc(-c4ccccc4)cc3)C2)CC1,inconclusive: -40.8% [inhibitor] [at 7.69 µM]
10,C[C@@H](COc1ccc(/C=C\c2ccccc2)cc1)[N+](C)(C)C,inactive: -11.9% [at 38 µM]
11,CCCCCCCCCCCCCCCCCC(=O)O[C@H](CC(=O)O)C[N+](C)(C)C,inconclusive: 33.3% [activator] [at 38 µM]
12,CCN(CC)CCN1c2ccccc2Sc2ccc3ccccc3c21,inconclusive: 33.1% [activator] [at 7.69 µM]
13,CC1(C)CC(=O)C(C=NCCN2CCN(CCc3ccccc3)CC2)=C(O)C1,inactive: 2.91%
14,COc1cccc(Nc2ncc3nc(-c4ccc(Cl)cc4)c(=O)n(CCC#N)c3n2)c1,inconclusive: -57.6% [inhibitor] [at 7.69 µM]
15,CN(C)CC(O)COc1ccc(C(C)(C)c2ccc(OCC(O)CN(C)C)cc2)cc1 (stereo not given),inactive: -0.00757%
16,CCN(CC)CCOC(=O)c1c(C)n(C)c2ccc(OC)cc12,inconclusive: 49.9% [activator]
17,O=C(Oc1ccccc1)N1CCC[C@@]2(CCN(c3ccncc3)C2)C1,inconclusive: -53.2% [inhibitor] [at 7.69 µM]
18,CCOC(=O)c1c(CN2CCN(C)CC2)n(C)c2cc(Br)c(OC)cc12,inactive: 5.82%
19,CCNc1ncc2nc(CCc3ccccc3)c(=O)n(Cc3ccc(F)cc3)c2n1,inconclusive: 74% [activator] [at 7.69 µM]
20,Cc1cc(Nc2ccc3ccccc3c2)n2ncnc2n1,inactive: 16.7%

row,SMILES,"activity change, negative = inhibition"
1,CS(=O)(=O)Nc1cccc(-c2ccc3ncnc(NCc4cccnc4)c3c2)c1,inconclusive: -30.9% [inhibitor] [at 7.69 µM]
2,C=C(C)COc1ccc2c(c1)CCC1C2CC[C@]2(C)C(=O)/C(=N/O)CC12 (stereo not given in full),inconclusive: -47% [inhibitor] [at 7.69 µM]
3,Cc1cc(C)nc(NC2=NCC(=O)N2c2ccc(Cl)cc2)n1,inactive: 0.0978%
4,CCc1[nH]nc2c1C(c1ccc(Br)s1)C(C#N)=C(N)O2 (stereo not given),inconclusive: -22.1% [inhibitor]
5,COC(=O)c1cccc(Nc2cc(C)nc(-c3ccccc3O)n2)c1,inconclusive: -40% [inhibitor]
6,O=[N+]([O-])c1ccc(S(=O)(=O)Cc2ccccc2)c2nonc12,inconclusive: 54.2% [activator] [at 7.69 µM]
7,COc1cccc(Nc2ncc3nc(CCc4ccccc4)c(=O)n(C)c3n2)c1,inconclusive: -45.5% [inhibitor] [at 7.69 µM]
8,C[N+](C)([O-])CCC=C1c2ccccc2CCc2ccccc21,inconclusive: 32.7% [activator] [at 7.69 µM]
9,COc1cccc(Nc2ncc3nc(CCc4ccccc4)c(=O)n(C4CC4)c3n2)c1,inconclusive: -39.4% [inhibitor] [at 7.69 µM]
10,COc1ccc2[nH]cc(C(=O)CN(C)CCc3ccc(OC)c(OC)c3)c2c1,inactive: -10.3%
11,COCCNc1cc(C)c(C#N)c2nc3ccccc3n12,inconclusive: 36.5% [activator]
12,CC(=O)O[C@H]1CC[C@@]2(C)C(=CC[C@@H]3[C@H]4CC[C@@H]([C@H](C)C(=O)O)[C@]4(C)CC[C@H]32)C1,inactive: -2.09% [at 7.69 µM]
13,NC(=O)CSc1nnc2n(-c3ccccc3)c(=O)c3c4c(sc3n12)CCCCC4,inconclusive: 18.2% [activator]
14,COc1ccccc1C(=O)NC(=Nc1nc2ccccc2o1)NC(=O)c1ccccc1OC,inconclusive: -33.5% [inhibitor]
15,CC1(C)Cc2c(c(N3CCOCC3)nc3sc4c(NCc5ccco5)nnnc4c23)CS1,inconclusive: -30.8% [inhibitor]
16,C=CCn1c(SCC(=O)c2ccc(NS(=O)(=O)c3ccccc3)cc2)nnc1-c1cccs1,inconclusive: -27% [inhibitor]
17,CN(C)c1ccc(-c2nc(-n3ccnc3)c3ccccc3n2)cc1,inconclusive: -89.2% [inhibitor] [at 7.69 µM]
18,Cc1cc(O)c(C(C)C)cc1N=Cc1ccccc1O,inactive: 7.1% [at 7.69 µM]
19,O[C@@](CCN1CCCCC1)(c1ccccc1)[C@@H]1C[C@H]2C=C[C@@H]1C2,inconclusive: 6.74% [inhibitor]
20,Cc1c(C)c2cc(Cl)c(O)c(CN3CCN(C)CC3)c2oc1=O,inconclusive: 9.54% [activator]
